# T1: CLL1 protein (C-type lectin-like molecule 1, CLEC12A) expressed on cells (UniProt Q5QGZ9 1-265, limits assumed)
# T1 construct: whole, on cells; also called CLL1 antigen; K562-CLL1 cells
# T1 sequence (looked up): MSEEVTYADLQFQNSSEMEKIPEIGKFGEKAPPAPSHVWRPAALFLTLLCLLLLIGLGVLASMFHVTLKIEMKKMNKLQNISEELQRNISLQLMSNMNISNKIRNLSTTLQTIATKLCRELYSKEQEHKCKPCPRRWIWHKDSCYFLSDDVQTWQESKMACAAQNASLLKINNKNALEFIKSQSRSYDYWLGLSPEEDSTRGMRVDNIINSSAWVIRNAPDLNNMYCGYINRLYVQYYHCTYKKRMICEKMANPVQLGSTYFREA
# B1: anti-CLL1 single-domain antibody fused with hFc (CLL1-VHH-1-hFc) (Fc fusion)
# chain: DVQLQESGGGLVQPGGSLRLSCAASGFTFGDYDMTWVRQAPGKGPEWVSAINSGGGSTYYADSVKGRFTISRDNAKNTLYLQMNSLKPEDTAVYYCATIDRLSTVVAGTYQPSDEYDYWGQGTQVTVSS[no letters for human IgG1 Fc with changes]
# modifications: labelled with NHS-Fluorescein (FITC) for the flow cytometry assays (sites not given); unlabelled in the NK cell assays
# notes: also called FITC-CLL1-VHH-1-hFc; VHH-hFc
# Molecular target: T1, CLL1 protein (C-type lectin-like …)
# Assay: flow cytometry, titration of FITC-CLL1-VHH-1-hFc on K562-CLL1 cells, double-reciprocal plot of MFI
# Procedure: (3) Forty microliters of the single-domain antibody FITC-CLL1-VHH-1-hFc at different gradient dilutions (specific groupings are shown in Table 3) were mixed with the above cells and incubated at room temperature in the dark for 10 min.
binder,measurement,value
B1,Kd,48.3 nM
